The whole screen tested about 310,000 compounds, of which about 2,200 (0.71%) showed an effect of 50% or more. Effects have a minus sign here. This is one part of the list.
Molecular target: human ether-à-go-go-related gene (hERG) potassium channel (human, UniProt Q12809)
Experiment: primary screen, population patch clamp on CHO cells stably expressing hERG

human ether-à-go-go-related gene (hERG) potassium channel, sequence (Q12809 whole entry, looked up): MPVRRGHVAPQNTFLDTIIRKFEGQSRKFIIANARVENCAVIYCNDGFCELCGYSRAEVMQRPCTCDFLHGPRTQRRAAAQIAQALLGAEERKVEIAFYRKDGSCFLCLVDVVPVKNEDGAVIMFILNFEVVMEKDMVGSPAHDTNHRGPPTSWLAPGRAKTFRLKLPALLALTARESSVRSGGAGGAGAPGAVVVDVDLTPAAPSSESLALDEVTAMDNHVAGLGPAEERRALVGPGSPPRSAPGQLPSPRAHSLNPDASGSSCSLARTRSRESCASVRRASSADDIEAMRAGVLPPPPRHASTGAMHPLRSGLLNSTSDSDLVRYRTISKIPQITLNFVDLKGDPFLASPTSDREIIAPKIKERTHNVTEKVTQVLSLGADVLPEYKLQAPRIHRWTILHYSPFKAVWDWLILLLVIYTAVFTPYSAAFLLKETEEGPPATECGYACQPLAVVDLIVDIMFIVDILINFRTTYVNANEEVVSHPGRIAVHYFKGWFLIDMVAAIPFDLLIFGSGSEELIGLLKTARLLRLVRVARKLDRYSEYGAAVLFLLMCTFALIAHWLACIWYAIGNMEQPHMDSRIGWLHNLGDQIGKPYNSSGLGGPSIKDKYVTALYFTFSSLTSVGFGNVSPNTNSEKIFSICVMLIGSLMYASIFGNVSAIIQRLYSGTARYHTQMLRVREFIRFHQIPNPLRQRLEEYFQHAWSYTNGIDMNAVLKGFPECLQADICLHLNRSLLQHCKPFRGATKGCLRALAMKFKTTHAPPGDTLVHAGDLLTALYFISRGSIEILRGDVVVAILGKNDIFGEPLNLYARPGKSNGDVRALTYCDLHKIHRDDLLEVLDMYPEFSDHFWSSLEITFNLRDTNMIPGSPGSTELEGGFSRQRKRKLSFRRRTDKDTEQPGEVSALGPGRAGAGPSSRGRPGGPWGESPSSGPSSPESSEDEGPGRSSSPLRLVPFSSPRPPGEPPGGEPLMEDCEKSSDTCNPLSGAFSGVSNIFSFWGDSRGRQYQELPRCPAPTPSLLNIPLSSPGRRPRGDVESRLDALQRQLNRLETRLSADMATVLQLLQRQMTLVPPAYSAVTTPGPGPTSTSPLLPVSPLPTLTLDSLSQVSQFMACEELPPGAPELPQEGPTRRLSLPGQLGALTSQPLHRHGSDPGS

| SMILES | hERG current change (%, negative = inhibition) at 1uM |
| --- | --- |
| CCOc1ccc(CNC(=O)CCCc2cn(C)c3ccccc23)cc1OC | 8.28% |
| CCOC(=O)Nc1ccc2c(c1)N(C(=O)CCN(CC)CC)c1ccccc1CC2 | -11.3% |
| CCn1cc(C(=O)O)c(=O)c2cc(F)c(N3CCN(C(=S)NC(=O)c4ccc(F)c(F)c4)CC3)cc21 | 24.3% |
| COc1ccc(NC(=O)CC2CCCC2)cc1OC | 11% |
| CN(C(=O)COC(=O)c1cc(-c2ccco2)nc2ccccc12)C1CCS(=O)(=O)C1 (centres unmarked) | 3.39% |
| Cc1cccc(NC(=O)CCC(=O)N/N=C/c2ccco2)c1 | 4.23% |
| CCCC(CCC)c1nc2ccncc2[nH]1.O=C(O)C(=O)O | 13.7% |
| FC(F)(F)c1cc(-c2ccco2)nc(NCc2cccs2)n1 | -3.14% |
| O=[N+]([O-])c1ccc(N2CCN(S(=O)(=O)c3ccccc3)CC2)cc1N1CCc2ccccc2C1 | 18.9% |
| COC(=O)c1sccc1NC(=O)C1CC1 | 7.58% |
| CC(=O)c1c(C)[nH]c(C(=O)Nc2ccc(Cl)c(S(=O)(=O)N3CCOCC3)c2)c1C | 11.6% |
| CCCCNC(=S)NNC(=O)c1cc(-c2cccnc2)nc2ccccc12 | -11.2% |
| Cc1cc(C)c(/C=N/NC(=O)c2nnn(-c3nonc3N)c2COc2ccc(F)cc2)c(C)c1 | 6.78% |
| Cc1ccccc1OCC(=O)N/N=C1\CC(=O)CC(C)(C)C1 | 15% |
| O=C(COC(=O)COc1ccccc1)NCCC1=CCCCC1 | 9.12% |
| CC1CCCN(S(=O)(=O)c2ccc(C(=O)Nc3ccccc3-c3nc4ccccc4[nH]3)cc2)C1 (centres unmarked) | 6.28% |
| O=C(O)c1ccccc1NN=C1CCCCC1 | 10.1% |
| Cc1ccc(N=C2NC(=O)CS2)cc1 | 1.04% |
| Cc1cc(Cl)cc(C)c1OCCCCCn1ccnc1 | 4.08% |
| CC(C)[C@H](NC(=O)N1CCn2c1nc1ccccc12)C(=O)NC1CC1 | 6.65% |
| CC12CC(NC(=O)N1CCc1ccccc1)c1ccccc1O2 (centres unmarked) | 4.26% |
| O=C(c1cc(-c2ccc(Cl)cc2Cl)on1)N1CCOCC1 | 6.71% |
| CCCCN(CC)CCCNC(=O)c1cn(CC)c2ccc(S(=O)(=O)N3CCc4ccccc4C3)cc2c1=O | -71.9% |

| SMILES | hERG current change (%, negative = inhibition) at 1uM |
| --- | --- |
| C/C(=N\NC(=O)c1ccccc1C)c1ccc(N2CCOCC2)cc1 | 11.8% |
| O=C(CC(CC(=O)c1ccc(Cl)cc1)c1ccccc1C(=O)O)c1ccc(Cl)cc1 | 8.37% |
| CCC(=O)c1ccc(OCC(O)CN2CC(C)OC(C)C2)cc1.O=C(O)C(=O)O (centres unmarked) | 14.3% |
| CN(C)c1ccc(C=NCCc2ccc(S(N)(=O)=O)cc2)cc1 | 3.1% |
| Cc1ccc(C(=O)Nc2ccc3c4c(cccc24)CC3)cc1[N+](=O)[O-] | 7.92% |
| Cc1c(C(=O)C(=O)N2c3ccccc3CC2C)c2ccccc2n1C (centres unmarked) | 5.77% |
| CC(C)(C)n1ncc2c(=O)n(CC(=O)N3CCCCC3)cnc21 | 7.6% |
| O=C(CSc1nc2ccccc2c(=O)n1-c1ccccc1)N1CCc2ccccc2C1 | 1.76% |
| O=C(NC1CCCCCCC1)C1CCN(S(=O)(=O)N2CCC3(CC2)OCCO3)CC1 | 1.53% |
| O=C(Nc1cccc(Cl)c1)Nc1cc(S(=O)(=O)N2CCCCC2)ccc1Cl | 14.8% |
| COc1ccc(Nc2nc3ccccc3n3cnnc23)cc1 | 8.24% |
| CN1CCc2c(sc(/N=C/c3ccco3)c2C(N)=O)C1 | 2.29% |
| CC1(C)N=C(c2ccc(Cl)cc2Cl)C(=O)N1 | 8.21% |
| CCn1nc(C)cc1C(=O)N1CCCC(N(C)CCc2ccc(OC)c(OC)c2)C1 (centres unmarked) | 5.26% |
| COCCCn1c(N)c(C(=O)NCc2ccco2)c2nc3ccccc3nc21 | 12.8% |
| C#CCOCCOCCOCCNc1nc(N2CCN(C(=O)Cn3cc(CCO)nn3)CC2)nc(N2CCN(C(=O)[C@H](C(C)C)n3cc(CCO)nn3)CC2)n1 | 12.1% |
| COc1ccc(C(=O)COC(=O)CCN2C(=O)[C@@H]3[C@H](C2=O)[C@@H]2C[C@H]3C(Br)C2Br)cc1 (some centres unmarked) | 13.6% |
| Cc1ccc(C(=O)N/N=C\c2ccc([N+](=O)[O-])s2)cn1 | 5.77% |
| CCCc1ncc(C[n+]2ccccc2C)c(N)n1.Cl.[Cl-] | 9.29% |
| CCOc1ccc(C(C)=O)cc1NC(=O)/C=C\C(=O)O | 10.6% |
| CCC(=O)c1ccc(OC)c(OC)c1 | 15.1% |
| COc1ccc(NC2CCCN(C(=O)c3cc4ncccn4n3)C2)cc1 (centres unmarked) | 16.1% |
| Cc1ccccc1-n1c(SC(C)C(=O)N2CCN(C)CC2)nc2ccccc2c1=O (centres unmarked) | 5.51% |

| SMILES | hERG current change (%, negative = inhibition) at 1uM |
| --- | --- |
| CCn1nc(C)cc1C(=O)Sc1ccc(C)cc1 | 3.53% |
| COc1cccc(-c2nc(SC)nc3sc(C(=O)NC(C)(C)C)c(N)c23)c1 | 8.15% |
| COc1ccc(S(=O)(=O)Nc2ccc(-n3cnnn3)cc2)cc1[N+](=O)[O-] | 13.2% |
| Cc1ccnc(SCC(=O)n2c3c(c4ccccc42)CC(C)CC3)n1 (centres unmarked) | 13.4% |
| Cc1ccc(S(=O)(=O)O)c(C)c1N1CCCC1=O | 4.44% |
| CC(Sc1nnc(N)s1)C(=O)Nc1ccc(N2CCOCC2)cc1 (centres unmarked) | 8.82% |
| C/C(=N\Nc1ccc(F)cc1)c1ccc(N2CCOCC2)c(F)c1 | 7.27% |
| Cc1ccc(S(=O)(=O)NC(=O)c2ccc(Br)o2)cc1 | 13.9% |
| CCCC(C(=O)NC(C)(C)CC)N(Cc1ccco1)C(=O)CNS(=O)(=O)c1ccccc1 (centres unmarked) | 3.45% |
| O=c1cccc2n1CC1CC2CN(c2ncnc3c2cnn3-c2ccc(Cl)cc2)C1 (centres unmarked) | -23.9% |
| NNC(=O)c1sc(-c2ccccc2)cc1N | 5.51% |
| CCOC(=O)CN(C)Cc1cn(C)nc1-c1ccc(Oc2ccccc2)cc1 | 6.3% |
| CC1CCCC(NC(=O)c2ccc(COc3ccccc3)o2)C1C (centres unmarked) | 8.21% |
| Cc1ccc(-n2nnc3c(=O)n(Cc4ccccc4C)cnc32)cc1 | 13.8% |
| COc1ccc(CN2CCN(C(=O)Cn3nc(C(=O)O)c4ccccc4c3=O)CC2)cc1F | -7.74% |
| COc1ccc(CN(C(=O)c2ccco2)c2ccc(Br)cc2)cc1OC | 9% |
| CC(Nc1nc(Nc2ccc(F)cc2)nc(SCC(N)=O)n1)c1ccccc1 (centres unmarked) | 14.3% |
| COCc1nnc(NC(=O)C2CC(=O)N(C3CCCC3)C2)s1 (centres unmarked) | 15% |
| CC(C)C(NC(=O)c1c(F)cccc1F)C(=O)N1CCN(c2ccccc2F)CC1 (centres unmarked) | 11.6% |
| O=C(c1cc(F)c(F)cc1Cl)N1CCOCC1 | 1.64% |
| O=C(/C=C/c1cc2c(cc1Br)OCO2)NCc1ccc(F)cc1 | 5.79% |
| O=C(CN1CCN(S(=O)(=O)c2ccc(Cl)cc2)CC1)NC1CC1 | 9.13% |
| NNc1ccc2nnc(C(F)(F)C(F)(F)C(F)(F)F)n2n1 | 10.7% |

| SMILES | hERG current change (%, negative = inhibition) at 1uM |
| --- | --- |
| CSc1ccc(Cn2nnc(C(=O)Nc3ccc(C)c(C)c3)c2N)cc1 | -1.56% |
| CSCCC(CO)NC(=O)OCc1ccccc1 (centres unmarked) | 8.46% |
| Cc1cc2nc(/N=C(\N)NC(=O)N3c4ccccc4Sc4ccccc43)nc(C)c2cc1C | -32.2% |
| N#Cc1cnn(Cc2ccccc2)c1N | 8.8% |
| CCCCN1C(=O)NC2NC(=O)NC21 (centres unmarked) | 3.06% |
| CCCCN(C(=O)c1ccco1)c1nnc(-c2cc(OC)c(OC)c(OC)c2)s1 | -1.23% |
| CC(=O)c1ccccc1OCC(O)CN1CCN(c2ccccn2)CC1.Cl (centres unmarked) | -9.92% |
| COc1ccccc1NC(=O)c1ccc(NC(=O)CSc2nnnn2C)cc1 | 9.7% |
| O=C(Nc1nc(-c2ccc(-c3ccccc3)cc2)cs1)c1cnccn1 | 3.61% |
| CCCC(=O)NCCc1cc(OC)c(OC)cc1Br | 16.1% |
| CCCC(C(=O)NC(C)(C)C)N(CCN1CCOCC1)C(=O)CNS(=O)(=O)c1ccccc1 (centres unmarked) | 13.8% |
| O=C(CSc1ccc2nnc(-c3cccnc3)n2n1)Nc1ccc(F)cc1F | -5.02% |
| CC(C)c1cc(Br)ccc1OCCCN1C(=O)NC(C)(C)C1=O | 5.49% |
| CCOC(=O)N1CCN(C(=S)NC(C)(C)C)CC1 | -0.972% |
| CN(C)C(=S)Nc1ccc2c(c1)OCCO2 | 9.5% |
| Cc1ccc(N=C2NC(=O)/C(=C\c3ccc(C)s3)S2)cc1 | 21% |
| O=C(O)c1cccc(NC(=S)NC(NC(=O)c2ccco2)C(Cl)(Cl)Cl)c1 (centres unmarked) | 7.5% |
| Cc1ccc(SCc2[nH]nc3c2C(c2ccc(C)o2)C(C#N)=C(N)O3)cc1 (centres unmarked) | 12.8% |
| COc1cc(OC)cc(C(=O)NCC(=O)OC2CCCCC2=O)c1 (centres unmarked) | -1.67% |
| C/C(=N\NC(=O)c1cccc(Br)c1)c1ccc(Br)cc1 | 15.7% |

Reference: publication PMC4336329 (PLoS ONE, 2015)
